# Experimental data: the supplement of paper PMC8728848
# The list shows a part of the results.
# B1: SP16665A-bot-344-23-344 (Bacteroides ovatus) (protein)
# chain: SDNEFPDFDYQTVYFANQYGLRTIELGESEFVDNTLDNQHKMVIKAAWGGGYTNRNNVVINFKVDESLCDNLYFKDTDQPLVPMPASYYTLASDRIAIPKGQIMAGVEVQLTDDFFADEKSISENYVIPLLMTNVQGADSILQGKPVVENPVLTNAGDWSILPQNFVLYAVKYVNPWHGEYLRRGIDHATVAGTSKDIIRHEQFVENDEVVNISTKSMKDNLLTLKTKDESGKDISYTVRLSFAEDGSCTVHSGSQNVVVSGSGKFVSKGEKNSLGGKDRNAIYLDYTVNLTDNNIQLATKDTLVLRTRNVYGGKSLEVVRK
# Key:
# Assay in all cases: glycan array binding signal (z-score within array); higher = stronger binding
# Conditions in all cases: glycan notation: IUPAC condensed, linker removed
# [1] = biological target: Neu5Ac(a2-6)Gal(b1-4)GlcNAc(b1-2)Man(a1-3)[Neu5Ac(a2-3)Gal(b1-4)GlcNAc(b1-2)Man(a1-6)]Man(b1-4)GlcNAc(b1-4)GlcNAc
# Summary of the method: (§1)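 The binding signal is a Z-score computed within each array. Data were drawn from 3228 arrays in the Consortium for Functional Glycomics database, restricted to those with a known protein sequence. Scores were averaged over arrays of the same protein sequence at different concentrations or buffers, and over linkers, and negative values can be taken as non-binding.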
# [2] = biological target: Neu5Ac(a2-6)Gal(b1-4)GlcNAc(b1-2)Man(a1-3)[Neu5Ac(a2-6)Gal(b1-4)GlcNAc(b1-2)Man(a1-6)]Man(b1-4)GlcNAc(b1-4)GlcNAc
# Summary of the method: as §1
# [3] = biological target: Neu5Ac(a2-6)Gal(b1-4)GlcNAc(b1-2)Man(a1-3)[Neu5Ac(a2-6)Gal(b1-4)GlcNAc(b1-2)Man(a1-6)]Man(b1-4)GlcNAc(b1-4)[Fuc(a1-6)]GlcNAc
# Summary of the method: as §1
# [4] = biological target: Neu5Ac(a2-6)Gal(b1-4)GlcNAc(b1-2)Man(a1-6)Man(b1-4)GlcNAc(b1-4)GlcNAc
# Summary of the method: as §1
# [5] = biological target: Neu5Ac(a2-6)Gal(b1-4)GlcNAc(b1-2)Man(a1-6)[Gal(b1-4)GlcNAc(b1-2)Man(a1-3)]Man(b1-4)GlcNAc(b1-4)GlcNAc
# Summary of the method: as §1
# [6] = biological target: Neu5Ac(a2-6)Gal(b1-4)GlcNAc(b1-2)Man(a1-6)[GlcNAc(b1-2)Man(a1-3)]Man(b1-4)GlcNAc(b1-4)GlcNAc
# Summary of the method: as §1
# [7] = biological target: Neu5Ac(a2-6)Gal(b1-4)GlcNAc(b1-2)Man(a1-6)[Man(a1-3)]Man(b1-4)GlcNAc(b1-4)GlcNAc
# Summary of the method: as §1
# [8] = biological target: Neu5Ac(a2-6)Gal(b1-4)GlcNAc(b1-2)[Neu5Ac(a2-6)Gal(b1-4)GlcNAc(b1-4)]Man(a1-3)[GlcNAc(b1-4)][Neu5Ac(a2-6)Gal(b1-4)GlcNAc(b1-2)[Neu5Ac(a2-6)Gal(b1-4)GlcNAc(b1-6)]Man(a1-6)]Man(b1-4)GlcNAc(b1-4)GlcNAc
# Summary of the method: as §1
# [9] = biological target: Neu5Ac(a2-6)Gal(b1-4)GlcNAc(b1-2)[Neu5Ac(a2-6)Gal(b1-4)GlcNAc(b1-4)]Man(a1-3)[GlcNAc(b1-4)][Neu5Ac(a2-6)Gal(b1-4)GlcNAc(b1-4)Man(a1-6)]Man(b1-4)GlcNAc(b1-4)GlcNAc
# Summary of the method: as §1
# [10] = biological target: Neu5Ac(a2-6)Gal(b1-4)GlcNAc(b1-2)[Neu5Ac(a2-6)Gal(b1-4)GlcNAc(b1-6)]Man(a1-6)[Neu5Ac(a2-6)Gal(b1-4)GlcNAc(b1-2)Man(a1-3)][GlcNAc(b1-4)]Man(b1-4)GlcNAc(b1-4)GlcNAc
# Summary of the method: as §1
# [11] = biological target: Neu5Ac(a2-6)Gal(b1-4)GlcNAc(b1-3)Gal(b1-3)GlcNAc
# Summary of the method: as §1
# [12] = biological target: Neu5Ac(a2-6)Gal(b1-4)GlcNAc(b1-3)Gal(b1-4)GlcNAc
# Summary of the method: as §1
# [13] = biological target: Neu5Ac(a2-6)Gal(b1-4)GlcNAc(b1-3)Gal(b1-4)GlcNAc(b1-2)Man(a1-3)[Neu5Ac(a2-6)Gal(b1-4)GlcNAc(b1-3)Gal(b1-4)GlcNAc(b1-2)Man(a1-6)]GalNAc
# Summary of the method: as §1
# [14] = biological target: Neu5Ac(a2-6)Gal(b1-4)GlcNAc(b1-3)Gal(b1-4)GlcNAc(b1-3)Gal(b1-4)GlcNAc
# Summary of the method: as §1
# [15] = biological target: Neu5Ac(a2-6)Gal(b1-4)GlcNAc(b1-3)Gal(b1-4)GlcNAc(b1-3)Gal(b1-4)GlcNAc(b1-2)Man(a1-3)[Neu5Ac(a2-6)Gal(b1-4)GlcNAc(b1-3)Gal(b1-4)GlcNAc(b1-3)Gal(b1-4)GlcNAc(b1-2)Man(a1-6)]GalNAc
# Summary of the method: as §1
# [16] = biological target: Neu5Ac(a2-6)Gal(b1-4)GlcNAc(b1-3)Gal(b1-4)GlcNAc(b1-3)GalNAc
# Summary of the method: as §1
# [17] = biological target: Neu5Ac(a2-6)Gal(b1-4)GlcNAc(b1-3)Gal(b1-4)GlcNAc(b1-3)[Neu5Ac(a2-6)Gal(b1-4)GlcNAc(b1-3)Gal(b1-4)GlcNAc(b1-6)]GalNAc
# Summary of the method: as §1
# [18] = biological target: Neu5Ac(a2-6)Gal(b1-4)GlcNAc(b1-3)Gal(b1-4)GlcNAc(b1-6)[Gal(b1-3)]GalNAc
# Summary of the method: as §1
# [19] = biological target: Neu5Ac(a2-6)Gal(b1-4)GlcNAc(b1-3)Gal(b1-4)[Fuc(a1-3)]GlcNAc(b1-3)Gal(b1-4)[Fuc(a1-3)]GlcNAc
# Summary of the method: as §1
# [20] = biological target: Neu5Ac(a2-6)Gal(b1-4)GlcNAc(b1-3)GalNAc
# Summary of the method: as §1
# [21] = biological target: Neu5Ac(a2-6)Gal(b1-4)GlcNAc(b1-3)[Neu5Ac(a2-6)Gal(b1-4)GlcNAc(b1-6)]GalNAc
# Summary of the method: as §1
# [22] = biological target: Neu5Ac(a2-6)Gal(b1-4)GlcNAc(b1-6)GalNAc
# Summary of the method: as §1
# [23] = biological target: Neu5Ac(a2-6)Gal(b1-4)GlcNAc(b1-6)[Gal(b1-3)GlcNAc(b1-3)]Gal(b1-4)Glc
# Summary of the method: as §1
# [24] = biological target: Neu5Ac(a2-6)Gal(b1-4)GlcNAc(b1-6)[Gal(b1-3)]GalNAc
# Summary of the method: as §1
# [25] = biological target: Neu5Ac(a2-6)Gal(b1-4)GlcNAc6S
# Summary of the method: as §1
# Neu5Ac(a2-6)GalNAc = biological target: Neu5Ac(a2-6)GalNAc
# Summary of the method: as §1
# [26] = biological target: Neu5Ac(a2-6)GalNAc(b1-4)GlcNAc
# Summary of the method: as §1
# [27] = biological target: Neu5Ac(a2-6)GalNAc(b1-4)GlcNAc6S
# Summary of the method: as §1
# [28] = biological target: Neu5Ac(a2-6)GlcNAc(b1-4)GlcNAc
# Summary of the method: as §1
# [29] = biological target: Neu5Ac(a2-6)GlcNAc(b1-4)GlcNAc(b1-4)GlcNAc
# Summary of the method: as §1
binder,measurement,setting,value
B1,glycan array binding signal (z-score),[1],-0.229
same,glycan array binding signal (z-score),[2],-0.265
same,glycan array binding signal (z-score),[3],0.106
same,glycan array binding signal (z-score),[4],-0.067
same,glycan array binding signal (z-score),[5],-0.141
same,glycan array binding signal (z-score),[6],-0.499
same,glycan array binding signal (z-score),[7],0.202
same,glycan array binding signal (z-score),[8],0.739
same,glycan array binding signal (z-score),[9],-0.509
same,glycan array binding signal (z-score),[10],-0.263
same,glycan array binding signal (z-score),[11],0.259
same,glycan array binding signal (z-score),[12],-0.68
same,glycan array binding signal (z-score),[13],0.228
same,glycan array binding signal (z-score),[14],-0.319
same,glycan array binding signal (z-score),[15],-0.157
same,glycan array binding signal (z-score),[16],-0.372
same,glycan array binding signal (z-score),[17],-0.295
same,glycan array binding signal (z-score),[18],-0.196
same,glycan array binding signal (z-score),[19],0.107
same,glycan array binding signal (z-score),[20],-0.619
same,glycan array binding signal (z-score),[21],-0.18
same,glycan array binding signal (z-score),[22],-0.237
same,glycan array binding signal (z-score),[23],-0.565
same,glycan array binding signal (z-score),[24],-0.424
same,glycan array binding signal (z-score),[25],-0.194
same,glycan array binding signal (z-score),Neu5Ac(a2-6)GalNAc,-0.36
same,glycan array binding signal (z-score),[26],-0.736
same,glycan array binding signal (z-score),[27],-0.452
same,glycan array binding signal (z-score),[28],-0.508
same,glycan array binding signal (z-score),[29],-0.453
